Measurements reported in the BET-seq Pho4 binding data (Le et al. 2018).
The other results are listed elsewhere or left out. These are noisy estimates, calculated here from bound and input reads.

Molecular target: T1, Pho4 (S. cerevisiae) (UniProt P07270)
T1 sequence: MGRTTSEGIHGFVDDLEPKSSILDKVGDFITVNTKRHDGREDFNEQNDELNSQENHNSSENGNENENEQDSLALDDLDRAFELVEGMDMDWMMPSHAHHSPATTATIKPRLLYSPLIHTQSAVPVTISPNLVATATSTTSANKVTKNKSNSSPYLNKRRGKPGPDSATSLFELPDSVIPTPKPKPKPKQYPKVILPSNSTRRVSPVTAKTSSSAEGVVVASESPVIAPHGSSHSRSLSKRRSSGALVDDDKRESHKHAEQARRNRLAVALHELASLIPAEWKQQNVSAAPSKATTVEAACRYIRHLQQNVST
Assay: relative binding free energy (BET-seq); higher = weaker binding
Settings: reference: library average

Relative binding free energy, 0.15 kcal/mol:
TGGTTCACGTGTTGAC
TTCTTCACGTGCGGGG
TCAATCACGTGTTTTT

Relative binding free energy, 0.13 kcal/mol:
GCGGTCACGTGTAGAG
GGTATCACGTGCTGTA
TGTAACACGTGATAGA
GGAATCACGTGGGGCG
GTACTCACGTGTATGT
ATTATCACGTGGTGTA

Relative binding free energy, 0.3 kcal/mol:
GTCATCACGTGATTTT
AGTGTCACGTGATCTC

Relative binding free energy, 0.31 kcal/mol:
AGGTTCACGTGTAGAC
TTTTGCACGTGAATGG
GGGTTCACGTGGGAAG
CGGTTCACGTGCGATG
CTTAGCACGTGAAAGT

Relative binding free energy, 0.09 kcal/mol:
ATGTACACGTGTGGTG
AGTATCACGTGGGAAA
CTGATCACGTGTTGGT
ACATGCACGTGTGGAT
AGTTGCACGTGATAGT
CAAGGCACGTGAGTTG
TAGTGCACGTGGACAT

Relative binding free energy, -0.05 kcal/mol:
GTAGCCACGTGTGGAG
GGTAACACGTGCGAGG

Relative binding free energy, 0.06 kcal/mol:
TGGAACACGTGTACGT
AGATACACGTGGTGCT
AAAGTCACGTGTTTTA
TTCTGCACGTGATTGA
TCGGACACGTGTTGAT
TGTTACACGTGGTTCG

Relative binding free energy, 0.14 kcal/mol:
CTTTGCACGTGGATTT
CATGTCACGTGGAGTT
TGAACCACGTGGAGTG
AATATCACGTGATTGT

Relative binding free energy, -0.11 kcal/mol:
TGTGACACGTGCTGAG
CTAGGCACGTGTGGTT
TAAAGCACGTGCGGGG
TTGGCCACGTGTTGGC

Relative binding free energy, 0.12 kcal/mol:
CTGGTCACGTGGTCGG
AGGATCACGTGGTAGT

Relative binding free energy, -0.21 kcal/mol:
TTAGGCACGTGGGGAG
ATTGCCACGTGTGTGT
AACAGCACGTGGGGTA
CAGGGCACGTGGTGCT
CTTGGCACGTGGGAAT
AGTAGCACGTGGTACG

Relative binding free energy, -0.15 kcal/mol:
GCTCGCACGTGGGAGG
AATGCCACGTGGTTTT
CGTGGCACGTGCGAGT
GAAGGCACGTGGGTTT
TTTGGCACGTGGGGCA
GGGAACACGTGGGCTG

Relative binding free energy, 0.55 kcal/mol:
TCATTCACGTGAGGCG

Relative binding free energy, 0.16 kcal/mol:
CTTGTCACGTGAGCGG

Relative binding free energy, 0.33 kcal/mol:
GTGTTCACGTGATTCA
GTGAGCACGTGAATTT
TTGGCCACGTGAGGCA

Relative binding free energy, -0.31 kcal/mol:
CGTGGCACGTGCCGGT

Relative binding free energy, 0.01 kcal/mol:
AGTCGCACGTGCGTTG
TAGTCCACGTGGAGGG
GTCGGCACGTGTGTTG

Relative binding free energy, -0.23 kcal/mol:
ACGGGCACGTGGTGTC
CATGGCACGTGGGTCG

Relative binding free energy, 0.32 kcal/mol:
TGGATCACGTGAGCGG

Relative binding free energy, 0.46 kcal/mol:
GTACTCACGTGAGGTT

Relative binding free energy, -0.13 kcal/mol:
GGTGGCACGTGCCCGT
TAGAGCACGTGTTGTC
TAATGCACGTGGTAGT

Relative binding free energy, -0.04 kcal/mol:
ATTAACACGTGCAGGG
TAAGGCACGTGTAGCT
GCGGGCACGTGGTAGA
TTGGCCACGTGTATTG
CAGTGCACGTGGAGGT

Relative binding free energy, -0.1 kcal/mol:
CTTAACACGTGTGGGA
AGTGGCACGTGGTGGC
GGGTCCACGTGGTGCG
ATCTGCACGTGGTGAT
GTGGGCACGTGGGAGA

Relative binding free energy, 0.36 kcal/mol:
AGGTTCACGTGTGACT
TTATTCACGTGGGATG
AAGCTCACGTGGAGAT

Relative binding free energy, -0.33 kcal/mol:
CTGCGCACGTGCGGGG

Relative binding free energy, -0.24 kcal/mol:
GGTGCCACGTGGTCGT
GCTGGCACGTGGGGCG
TTAGGCACGTGCATAT

Relative binding free energy, 0.28 kcal/mol:
TAGTTCACGTGTTACT
TGGTTCACGTGCGGGT

Relative binding free energy, -0.12 kcal/mol:
GTTGGCACGTGGGACT
ATGAACACGTGGGTGC

Relative binding free energy, -0.01 kcal/mol:
AGGCACACGTGGTTGG
AGTGGCACGTGGAAAG
AAAGTCACGTGTTTGT
GGAAACACGTGGATGG
AGTGACACGTGTGGGA
CGGTGCACGTGGCGTA
AGGGACACGTGGGATT

Relative binding free energy, -0.2 kcal/mol:
TAGTACACGTGGGGAA

Relative binding free energy, 0.1 kcal/mol:
AGTTACACGTGCTAGG
GGGACCACGTGGAAGG
AAGGACACGTGTGTGA
TAGTGCACGTGAGAAG

Relative binding free energy, 0.11 kcal/mol:
TAGGTCACGTGTTAGA
CTTATCACGTGTGCGG

Relative binding free energy, 0.39 kcal/mol:
GTGTTCACGTGTCGGA

Relative binding free energy, -0.19 kcal/mol:
AGGAGCACGTGGTGTC
GTGCGCACGTGGGGGG

Relative binding free energy, 0.04 kcal/mol:
GTTCACACGTGGGTAT
GTGCACACGTGGATGG
TTCTGCACGTGTATTG
AGAGACACGTGGATGT
CGTAGCACGTGATAGT
TGAGGCACGTGTGTGA

Relative binding free energy, 0.26 kcal/mol:
GATAGCACGTGAGTGT
TGATTCACGTGTTGTT
AGTTTCACGTGTGGAG
GGGGTCACGTGAGTAG
CTTTGCACGTGAGAAT
TCATTCACGTGTACGG
AAATTCACGTGTAGTT

Relative binding free energy, 0.2 kcal/mol:
GGGTTCACGTGCTTGT
GAAGGCACGTGAGGAT
GTGAACACGTGAGAGT
GTTGGCACGTGAATAG

Relative binding free energy, 0.44 kcal/mol:
GATTTCACGTGATGGC

Relative binding free energy, 0.22 kcal/mol:
GGGGTCACGTGGTTGT
TTAAACACGTGAATTT
CGTTTCACGTGTTGTT

Relative binding free energy, 0.24 kcal/mol:
CTGTGCACGTGAGTGA
AGCGACACGTGAAGGG
TTGATCACGTGATTTA
AGCTTCACGTGATTTG

Relative binding free energy, -0.16 kcal/mol:
AGAGCCACGTGGTTGG
ATGAGCACGTGGTAAT

Relative binding free energy, 0.35 kcal/mol:
GATTTCACGTGGCGTC
AATGACACGTGAAGAT
GTGTTCACGTGAGTAC

Relative binding free energy, -0.03 kcal/mol:
ATGTGCACGTGGTCTA
CGTTGCACGTGGACGT
TTAAACACGTGTAATG
AGTTGCACGTGTTCAT
GGTGGCACGTGGGATA
TGTTACACGTGGGGGG
ATGGACACGTGGATAG
ATTTGCACGTGGCGAG

Relative binding free energy, -0.14 kcal/mol:
CAAGGCACGTGGTTTA
TGATGCACGTGCGGTA

Relative binding free energy, 0.27 kcal/mol:
TTGGACACGTGTAGAT
TGATTCACGTGTGATC

Relative binding free energy, 0.18 kcal/mol:
GAGAGCACGTGACGGT
TGACTCACGTGTGTAG
AGAGCCACGTGAGTGG
GTCCTCACGTGGGTGG
GTAGACACGTGTGGTT
GGTTTCACGTGATACT
GAAATCACGTGGTGGA

Relative binding free energy, 0 kcal/mol:
TGAGGCACGTGCTTGC
ACGGACACGTGTAGGT
TATTGCACGTGTATAA
CTAGTCACGTGGTGTT

Relative binding free energy, -0.28 kcal/mol:
TAGGGCACGTGGGTTC

Relative binding free energy, 0.08 kcal/mol:
GGTTGCACGTGGTTTA
GGTTGCACGTGTTCAA
TATGTCACGTGTACTT
AAGTACACGTGTGGAG

Relative binding free energy, 0.07 kcal/mol:
GGGATCACGTGGTATA
ATTTGCACGTGATTGA
AAAATCACGTGGTGTG
TTCTCCACGTGGTGTG
GGATGCACGTGTAATA
GTCAACACGTGGAGTG

Relative binding free energy, -0.06 kcal/mol:
TGATGCACGTGTTGTC
TGAAGCACGTGCGGCG
TGAGACACGTGGTGTG
TGGTCCACGTGGGCTG
GTGGGCACGTGTAAGG
TTCAGCACGTGTTGTA
TTTAGCACGTGTGTCA
TATAACACGTGGTATT

Relative binding free energy, 0.03 kcal/mol:
TAGGTCACGTGGGATG
GGGTGCACGTGTGTGG
ACAGGCACGTGTTGGT
ACGGTCACGTGCGGGG

Relative binding free energy, -0.07 kcal/mol:
GTAGCCACGTGTATGG
TAAGGCACGTGTGGTG
TTGCGCACGTGGATGG
TTTGGCACGTGGATCA
TATTACACGTGGGCAT
GGGACCACGTGGTGTG
AATGGCACGTGGCAAG
GCATGCACGTGGTAGT

Relative binding free energy, 0.38 kcal/mol:
TAATTCACGTGGAGCG

Relative binding free energy, 0.29 kcal/mol:
TTTTACACGTGAGTCG
CTGTACACGTGAGAGG
GGTCTCACGTGTGGTT
AGGTTCACGTGACGGA

Relative binding free energy, -0.02 kcal/mol:
TGCAACACGTGGGTTG
TTTGTCACGTGGCTAA

Relative binding free energy, 0.34 kcal/mol:
TTATTCACGTGATTTT

Relative binding free energy, -0.22 kcal/mol:
CTTGCCACGTGGTTGT
TATTGCACGTGGGGCT
TTTGCCACGTGGGGGT
TGTGGCACGTGGGTTC

Relative binding free energy, 0.37 kcal/mol:
GAGCTCACGTGAAGGT
GTATTCACGTGTCTGG
GTTATCACGTGAAAGT

Relative binding free energy, -0.08 kcal/mol:
TGGGACACGTGGGGGA
AGTGACACGTGGGGCG
GCGCGCACGTGGAGGT
AAGTGCACGTGCTTTG
TATTGCACGTGGGTAA

Relative binding free energy, 0.21 kcal/mol:
AATGTCACGTGATGGT
TTCTGCACGTGAGTAG
TTCGTCACGTGTAGAA
TGGGTCACGTGTCTTT
TCTTACACGTGCTGTG

Relative binding free energy, 0.05 kcal/mol:
GTCGGCACGTGTATTG
GGATGCACGTGGAAAG

Relative binding free energy, 0.19 kcal/mol:
GTAGTCACGTGACAGT

Relative binding free energy, 0.17 kcal/mol:
GGGCTCACGTGGAGGG
AGTAGCACGTGAGAGT
AGAATCACGTGTTAGG
ATTATCACGTGTTCGA
AGTCTCACGTGGTGTA

Relative binding free energy, -0.09 kcal/mol:
TAGGGCACGTGGCTGG
TGTGGCACGTGCGGTT
GGTAGCACGTGGCGCG
GGACGCACGTGGAGGG
GATTCCACGTGGGGGG

Relative binding free energy, -0.29 kcal/mol:
TGTGCCACGTGGGTCA
